Measurements reported in US20060063228A1 (Pfizer, published 2006).

Biological target: T1, IL-13Rα2 on A375 human melanoma cells (human, UniProt Q14627 27-380)
T1 construct: whole, on cells
T1 sequence (looked up): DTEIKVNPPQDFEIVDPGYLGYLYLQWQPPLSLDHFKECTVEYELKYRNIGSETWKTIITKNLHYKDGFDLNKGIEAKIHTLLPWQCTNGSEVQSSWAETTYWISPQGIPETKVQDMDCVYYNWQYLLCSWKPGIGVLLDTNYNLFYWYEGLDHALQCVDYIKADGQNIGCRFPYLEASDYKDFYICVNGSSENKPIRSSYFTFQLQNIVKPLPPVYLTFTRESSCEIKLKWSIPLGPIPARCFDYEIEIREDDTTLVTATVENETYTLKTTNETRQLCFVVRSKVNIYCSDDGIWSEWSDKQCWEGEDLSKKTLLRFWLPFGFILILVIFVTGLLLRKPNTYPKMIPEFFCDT
Test: flow cytometry; IL-13 captured on A375 cells that express IL-13Rα2, detected with biotinylated h13.2v2
Excerpt: The cell signaling form of the IL-13 receptor, which includes the IL-13Rα1 and IL-4Rα polypeptides, is found on the surface of cell types that respond to the cytokine. IL-13Rα2 is not typically expressed on the surface of IL-13-responsive cells, but has been reported on tumors of the brain, head, and neck (Kawakami et al. (2003) Clin. Cancer Res. 9:6381-8; Mintz et al. (2002) Neoplasia 4:388-99; Liu et al. (2000) Cancer Immunol. Immunother. 49:319-24). IL-13Rα2 expression may also be induced on IFNγ-treated primary human monocytes (Daines et al. (2002) J. Biol. Chem. 277:10387-93), or TNFα- or IL-13-treated primary human fibroblasts (Yoshikawa et al. (2003) Biochem. Biophys. Res. Commun. 312:1248-55). This receptor is not competent to mediate signaling responses to IL-13 (Kawakami et al. (2001) Blood 97:2673-9), but instead appears to act as a decoy receptor, competing for productive IL-13 interactions with IL-13Rα1 (Feng et al. (1998) Lab. Invest. 78:591-602). IL-13Rα2 has a high affinity for IL-13 (Andrews et al. (2002) J. Biol. Chem. 277:46073-8), and appears to interact primarily with the C-terminal region of the cytokine (Madhankumar et al. (2002) J. Biol. Chem. 277:43194-205), which is not predicted to include the h13.2v2 binding site. Therefore, it was examined whether h13.2v2 could interact with IL-13 captured by IL-13Rα2 on the cell surface. […]

binding result: binds
B1: recombinant human IL-13 (ligand)
chain: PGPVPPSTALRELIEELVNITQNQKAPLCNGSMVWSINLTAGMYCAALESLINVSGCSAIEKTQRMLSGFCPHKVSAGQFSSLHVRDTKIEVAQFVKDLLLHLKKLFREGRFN
notes: also called biotinylated IL-13; rec human IL-13
